Out of some 310,000 compounds screened, about 2,200 (0.71%) showed an effect of 50% or more. Effects have a minus sign here. The list shows a part of the results.
Target: human ether-à-go-go-related gene (hERG) potassium channel (human, UniProt Q12809)
Assay: primary screen, population patch clamp on CHO cells stably expressing hERG

Chain of human ether-à-go-go-related gene (hERG) potassium channel (Q12809 whole entry, looked up): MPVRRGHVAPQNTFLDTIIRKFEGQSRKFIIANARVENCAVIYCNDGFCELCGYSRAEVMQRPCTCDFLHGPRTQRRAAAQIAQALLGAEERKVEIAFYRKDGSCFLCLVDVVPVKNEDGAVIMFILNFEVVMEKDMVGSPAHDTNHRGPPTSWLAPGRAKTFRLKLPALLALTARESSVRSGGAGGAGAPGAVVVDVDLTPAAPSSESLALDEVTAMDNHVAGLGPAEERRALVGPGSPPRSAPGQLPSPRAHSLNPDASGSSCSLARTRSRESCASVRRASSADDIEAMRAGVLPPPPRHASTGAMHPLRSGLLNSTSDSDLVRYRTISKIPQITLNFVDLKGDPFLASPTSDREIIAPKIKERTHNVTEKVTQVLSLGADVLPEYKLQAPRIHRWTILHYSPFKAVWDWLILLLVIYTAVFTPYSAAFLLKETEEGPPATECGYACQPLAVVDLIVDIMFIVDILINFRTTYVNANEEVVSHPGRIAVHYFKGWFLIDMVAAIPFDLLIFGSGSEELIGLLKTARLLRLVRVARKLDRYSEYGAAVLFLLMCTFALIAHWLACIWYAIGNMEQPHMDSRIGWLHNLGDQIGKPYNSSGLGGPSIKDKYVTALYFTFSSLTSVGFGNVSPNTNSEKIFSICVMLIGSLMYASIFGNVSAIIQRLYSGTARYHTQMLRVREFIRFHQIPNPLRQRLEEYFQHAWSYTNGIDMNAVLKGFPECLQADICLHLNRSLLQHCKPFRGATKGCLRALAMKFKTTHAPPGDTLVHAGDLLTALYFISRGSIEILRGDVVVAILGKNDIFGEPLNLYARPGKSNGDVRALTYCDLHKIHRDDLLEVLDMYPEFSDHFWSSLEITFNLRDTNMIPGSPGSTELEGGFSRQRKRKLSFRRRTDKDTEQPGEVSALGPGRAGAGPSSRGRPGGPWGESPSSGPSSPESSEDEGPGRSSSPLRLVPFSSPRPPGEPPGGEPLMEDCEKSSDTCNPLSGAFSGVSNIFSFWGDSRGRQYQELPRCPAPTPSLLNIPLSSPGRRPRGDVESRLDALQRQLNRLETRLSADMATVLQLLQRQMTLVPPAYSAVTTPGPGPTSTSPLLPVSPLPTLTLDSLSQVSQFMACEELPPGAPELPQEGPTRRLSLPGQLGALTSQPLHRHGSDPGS

Row | SMILES | hERG current change (%, negative = inhibition) at 1uM
1 | N/C(=N\OC(=O)CCCOc1ccccc1)c1cccc([N+](=O)[O-])c1 | -0.923%
2 | CCO[C@@H]1c2c(ccc3ccc(=O)oc23)OC(C)(C)[C@H]1O | 14.2%
3 | COc1cc(C)c(/C=C(\C#N)C(=O)Nc2ccc(C)cc2)cc1C(C)C | 10.2%
4 | Cc1nc(NC(=O)CN2CCOCC2)sc1C(=O)N(C)C | 10.2%
5 | Cc1nc(N2CCN(c3ccccn3)CC2)c2c(C)c(C(=O)Nc3ccc(F)cc3Cl)sc2n1 | -1.8%
6 | Cc1ccc(C(C)n2cc(C(=O)NCCN3CCN(C)CC3)nn2)cc1 (centres unmarked) | 7.13%
7 | O=c1ccnc(Nc2ccc([N+](=O)[O-])cc2)[nH]1 | 19.8%
8 | CCOC(=O)c1sc2ccc(S(=O)(=O)N3CC(C)CC(C)C3)cc2c1N (centres unmarked) | 1.42%
9 | CN(C)c1ccc(NC(=O)CSc2nc(N)c(C(=O)Nc3ccc(N(C)C)cc3)s2)cc1 | 13.5%
10 | CCCCN(C)CCCNC(=O)c1cccc(N2CCCC2=O)c1 | 11.1%
11 | Fc1cccc(/C=N/Nc2ccc(Cl)nn2)c1 | 11.2%
12 | CN(CCOc1ccccc1)C(=O)c1cc(-c2ccco2)nc2ccccc12 | -11.4%
13 | c1csc(C2=NNC(=NC3CCCCC3)SC2)c1 | 10.2%
14 | O=c1c2cc(Br)ccc2nc2n1CCCCC2 | -3.14%
15 | CCOC(=O)CN1NC2(CCCCCC2)NC1=S | 6.37%
16 | CCOC(=O)c1cc2c(N)c(C(=O)c3ccc(Br)cc3)sc2[nH]c1=O | -5.84%
17 | Cc1ccc(C)c(Cn2nnc3c(=O)[nH]c(C4CCN(C(=O)c5ccco5)CC4)nc32)c1 | 11.3%
18 | CCC(C(=O)NCc1ccc(F)cc1)N(Cc1ccco1)C(=O)c1snc(C(N)=O)c1N (centres unmarked) | 4.92%
19 | COc1ccc(C2N(c3cc(C)on3)C(=O)C3CCCN32)cc1 (centres unmarked) | 9.81%
20 | CN(C)CCN1C(=O)c2oc3ccc(F)cc3c(=O)c2C1c1ccncc1 (centres unmarked) | 8.84%
21 | COc1cccc(/C=N/NC(=O)CCc2ccccc2)c1 | -2.97%
22 | O=C(CCC1CCCN(C(=O)c2ccsc2)C1)NCc1ccc(F)c(F)c1 (centres unmarked) | 7.35%

Row | SMILES | hERG current change (%, negative = inhibition) at 1uM
23 | CC(=O)c1cccc(NC(=O)CNC(=O)Cc2ccccc2)c1 | 25.4%
24 | COc1cc(C2CC(=O)c3c(ccc4ccccc34)N2)ccc1O (centres unmarked) | 12.2%
25 | COc1ccc2c(N)c(C(=O)NN)[nH]c2c1 | 12.1%
26 | CS/C(N)=N/N=C/c1ccc2c(c1)OCO2 | 13.3%
27 | CC1CN(c2nc3ccccn3c(=O)c2/C=C(\C#N)C(=O)N2CCOCC2)CC(C)O1 (centres unmarked) | 10.2%
28 | CCOC(=O)c1c(C)n(CCNC(C)=O)c2ccc(OC)cc12 | 5.97%
29 | O=S(=O)(NCCc1ccccc1)c1ccc(-n2cnnn2)cc1 | -20.6%
30 | O=C(Cc1ccc(F)cc1)Nc1c2c(nn1-c1cccc(Cl)c1)CS(=O)C2 (centres unmarked) | 5.51%
31 | C[C@H](NC(=O)c1ccccc1Cl)C(=O)OCC(=O)N1CC2(C)CC1CC(C)(C)C2 (some centres unmarked) | 0.641%
32 | CCO.CCOc1ccc(Cl)cc1C(c1c(C)[nH][nH]c1=O)c1c(C)[nH][nH]c1=O | 12.3%
33 | COc1ccccc1C(=O)NCC(=O)OCC(=O)Nc1cccc(S(=O)(=O)N(C)C)c1 | 19%
34 | Cc1ccc(N=Cc2c(O)c3ccccc3oc2=O)c(C)c1 | 14.5%
35 | CON(C)c1nc(C2CCCCC2)c2cc(C)ccc2n1 | 15.1%
36 | COc1ccc2[nH]cc(CCNC(=O)COc3ccc4ccc(=O)oc4c3)c2c1 | 3.38%
37 | Cc1nc2ccc(NC(=O)c3cccs3)cc2c(=O)n1Cc1ccc(Cl)cc1 | 13.6%
38 | COCCNS(=O)(=O)c1ccc2c(c1)C(=O)c1cc(S(=O)(=O)NCCOC)ccc1-2 | 8.67%
39 | Cc1c(OC(C)C(=O)NCCN2CCOCC2)ccc2c3c(c(=O)oc12)CCC3 (centres unmarked) | 12.4%
40 | COC(=O)COc1cccc2c(=O)n(CC(=O)N3CCCc4ccccc43)ccc12 | 19.7%
41 | COc1cc(/C=N/NC(=O)COc2c(C)cc([N+](=O)[O-])cc2C)ccc1OC(=O)c1ccccc1Br | 30.8%
42 | O=c1cccc2n1CC1CC2CN(S(=O)(=O)c2cc(Cl)ccc2Cl)C1 (centres unmarked) | -5.73%
43 | CCN(C(=O)Nc1ccccc1)c1ccccc1 | 11.3%
44 | CCN(CC)C(=O)c1ccccc1NS(=O)(=O)c1ccc(C)cc1 | 1.57%

Row | SMILES | hERG current change (%, negative = inhibition) at 1uM
45 | CCOc1cc(N2CCOCC2)c(OCC)cc1NC(=O)CN1C(=O)NC2(CCCCCCC2)C1=O | -26.8%
46 | N#CCCN1CCN(C(=S)c2ccc(-c3ccc(Cl)c(Cl)c3)o2)CC1 | 1.5%
47 | CN(c1ccc(C(=O)N2CCOCC2)cc1[N+](=O)[O-])C1CCCCC1 | -12.6%
48 | O=C(CCc1nnc(CCCCc2ccccc2)o1)NCc1cccc(F)c1 | 9.39%
49 | COc1ccc(C(=O)CSc2nn3c(=O)c(C(C)(C)C)nnc3s2)cc1 | 14.2%
50 | COc1ccccc1C(=O)NCC(=O)N/N=C(\C)Cc1ccccc1 | 15.3%
51 | COc1cc(OC)cc(-c2nc3ccccc3c(=O)o2)c1 | 7.52%
52 | CC(C)c1ccc(N(CCc2ccccn2)C(=O)C(C)(C)C)cc1 | 11.9%
53 | CCOC(=O)C(NC(=O)NCc1ccccc1)(OCC)C(F)(F)F (centres unmarked) | 10.6%
54 | [O-][N+]1=c2ccc(Nc3ccccc3)cc2=NC12CCCCC2 | -15.6%
55 | CCCc1nnc(NC(=O)CN2C(=O)C3C4C=CC(C4)C3C2=O)s1 (centres unmarked) | -2.18%
56 | CC(C)C(=O)Nc1nnc(-c2ccco2)s1 | 12.2%
57 | Cc1cc(NC(=O)CCC(=O)N(CC(=O)NC2CCCC2)c2cccc(C)c2C)no1 | 10.7%
58 | CCOC(=O)c1ccc(NC(=O)C(CC)(CC)C(=O)OCC)cc1 | -0.122%
59 | COc1cccc(N(C(=O)c2ccco2)C(C(=O)NC2CCCC2)c2cccnc2)c1 (centres unmarked) | -10.3%
60 | Cc1onc(-c2ccc(Cl)cc2)c1-c1ccnc(SCC(=O)Nc2ccc(C(C)C)cc2)n1 | 7.01%
61 | COc1cc2c(cc1O)[C@H](Cc1ccc(Oc3cc(C[C@@H]4NCCc5cc(OC)c(O)cc54)ccc3O)cc1)NCC2 | 3.27%
62 | COc1ccc(CC(=O)NNC(=O)[C@@H]2CCCC[C@@H]2C(=O)O)cc1 | 0.68%
63 | Cc1cc(NC(=O)CC(F)(F)F)n(-c2ccccc2)n1 | 6.48%
64 | ON1C2CCCCC2N(O)C1c1ccccc1F (centres unmarked) | 16.7%
65 | COc1cccc(C2N(Cc3ccccc3)C(=O)C2(F)F)c1OC (centres unmarked) | -6.92%
66 | CCN(CC)C(=O)CC(c1ccc2c(c1)OCO2)c1c(OC)cc(OC)c2c(-c3ccccc3)cc(=O)oc12 (centres unmarked) | 9.25%

Row | SMILES | hERG current change (%, negative = inhibition) at 1uM
67 | C=CCc1c(C)nc(C)nc1N/N=C/c1ccccc1O | -12.5%
68 | Cc1cccc(N2CCN(C(=O)C3CCCN(S(=O)(=O)c4c(C)noc4C)C3)CC2)c1C (centres unmarked) | 5.34%
69 | N#CC1=C(N)OC2=C(C(=O)CCC2)C1C1CC=CCC1 (centres unmarked) | 4.21%
70 | O=c1c2ccccc2nc2c3ccccc3c(NCc3ccco3)nn12 | 1.44%
71 | CCOC(=O)c1cccc(NC(=O)CSc2nnc(COc3ccccc3)n2CC)c1 | -3.48%
72 | Cc1cc(C)cc(-n2nnnc2SCC(=O)Nc2nc(-c3ccc(Cl)cc3)cs2)c1 | 18.6%
73 | Cc1ccc(N2C(=O)CSC2c2cccs2)cc1 (centres unmarked) | -0.318%
74 | COc1ccc(CN(CC2CCCO2)C(=O)c2cc3sccc3n2C)c(OC)c1 (centres unmarked) | 4.44%
75 | CC(OC(=O)c1cc(Cl)ccc1[N+](=O)[O-])C(=O)NC(C)c1ccc(F)cc1 (centres unmarked) | 10.5%
76 | CC1(C)C(=O)Nc2ccccc2N1C(=O)COc1ccc(S(=O)(=O)N2CCOCC2)cc1Cl | 15.4%
77 | COc1ccc(CN2CCCC(N3CCc4ccccc4C3)C2)c(O)c1 (centres unmarked) | 2.89%
78 | Cc1ccc(Nc2cc(C)nc3ncnn23)c(Cl)c1 | -2.12%
79 | CC(=O)n1c(-c2ccccc2)c(CO)c2ccccc21 | 13.5%
80 | COc1ccc(-c2csc3ncnc(N4CCN(S(=O)(=O)c5ccc(C)cc5)CC4)c23)cc1 | 5.19%
81 | O=C(COC(=O)c1cccc(S(=O)(=O)N2CCc3ccccc32)c1)NCc1ccco1 | 24.9%
82 | CN(C(=O)CSc1nnc(NCc2ccccc2)s1)C1CCS(=O)(=O)C1 (centres unmarked) | 7.52%
83 | COc1ccccc1CNC(=O)CN1C(=O)NC2(CCCc3ccccc32)C1=O (centres unmarked) | 13.2%
84 | O=C(N/N=C\c1cccc(F)c1)c1ccc(-c2ccccc2)cc1 | 24.2%
85 | O=C(Nc1ccc2c(c1)OCCO2)c1cccc(C(=O)Nc2ccc3c(c2)OCCO3)c1 | 12.8%
86 | S=C(NCc1ccc(Cl)cc1)NC1CCN(Cc2ccccc2)CC1 | 0.149%
